In ChEMBL document CHEMBL4888484, “Replenishing the malaria drug discovery pipeline: Screening and hit evaluation of the MMV Hit Generation Library 1 (HGL1) against asexual blood stage Plasmodium falciparum ,using a nano luciferase reporter read-out” (2022):
Values joined by “and” are separate entries in the source; they are usually repeats but may differ in a detail not shown here. Equal values may be shown once. About 540 (0.36%) of roughly 150,000 compounds showed an effect of 50% or more. The list shows a part of the results.

Test system: Plasmodium falciparum
Test: Primary screen in NF54 nanoGlo assay, in single point, at 2uM, 72h; a lower Z score goes with more inhibition
Type: functional, Erythrocyte
Conditions: timepoint 72 hour

| SMILES | % Inhibition [%] | Z score | % Inhibition (2 µM) |
| --- | --- | --- | --- |
| Cc1cc(C(=O)O[C@@H](C)C(=O)NC(=O)NCC(F)(F)F)c(C)n1C(C)C | -10 | 1.03 | – |
| CCOc1cc(Cl)ccc1C(=O)NC[C@H]1CN2CCN1CC2 | -2 | 0.3 | – |
| CCc1c(C(=O)NC[C@@H]2CCCN3CCCC[C@H]23)c(=O)cc(C)n1Cc1ccccc1OC | -14 | 1.98 | – |
| Cc1ccc(CNC(=O)Nc2ccc3oc(=O)n(C)c3c2)c(C)c1 | -8 | 1.19 | – |
| Cc1nsc(N2CCNCC2)c1C#N | 5 | -0.52 | – |
| CC(=O)c1ccc(NC(=O)N2CCN3CCC2CC3)cc1 | 0 | -0.01 | – |
| Cc1nc[nH]c1CN1C[C@H]2CC[C@@H](C1)N(C(=O)Cc1ccc3c(c1)OCO3)C2 | -9 | 1.69 | – |
| CN1Cc2ccccc2-n2ccnc2C12CCN(C(=O)c1ccncc1)CC2 | -11 | 1.39 | – |
| COc1ccc2c(c1)[C@@]1(CCN(C(=O)Nc3ccccc3F)C1)C(=O)N2 | -2 | 0.34 | – |
| CCC1(CC)C(=O)NC(=NNc2ccccc2)NC1=O | -1 | 0.21 | – |
| CN1[C@@H]2CC[C@H]1CN(c1nc(C(N)=O)cs1)CC2 | 12 | -1.52 | – |
| Cc1nc2ccccn2c1CN1CCC[C@H](C(=O)c2ccccn2)C1 | 10 | -1.32 | – |
| O=C1N(c2ccccn2)C[C@H]2CN(Cc3ccc(F)cc3)CCN12 | 0 | -0.06 | – |
| CN1CCN2c3cc(Cl)ccc3CC3(C(=O)N(c4ccccc4)C(=O)N(c4ccccc4)C3=O)[C@@H]2C1 | 9 | -1.16 | – |
| CCOc1cccc2c1cc(C(=O)NCc1ccc3c(c1)OCO3)n2Cc1ccccc1Cl | -17 | 1.63 | – |
| Cc1n[nH]c(C)c1CNCCc1c[nH]c2ccccc12 | -3 | 0.71 | – |
| CN1CCN2c3ccccc3CC3(C(=O)NC(=O)N(c4ccc(F)cc4)C3=O)C2C1 (configuration not stated) | -2 | 0.21 | – |
| Cn1c(O)c(C2=NN[C@H](c3ccccc3)C2)c(=O)n(C)c1=O | 2 | -0.3 | – |
| CN1C2CCC1CC(Oc1ncc(Cl)cn1)C2 (configuration not stated) | -15 | 2.22 | – |
| CC(Cc1ccc(Cl)cc1)NC(C)c1nc(C(C)C)no1 (configuration not stated) | -1 | 0.08 | – |
| O=C1c2ccccc2NC2(CCN(CC3CCCCC3)CC2)N1c1ccc2c(c1)OCO2 | -8 | 1.5 | – |

| SMILES | % Inhibition [%] | Z score | % Inhibition (2 µM) |
| --- | --- | --- | --- |
| CC(C)(NC(=O)c1cc(S(=O)(=O)F)c[nH]1)c1nccs1 | -6 | 0.77 | – |
| COc1cccc(OCC#CCN2CCCCC2)c1 | -2 | 0.25 | – |
| COc1ccc(NC(=O)N2[C@H]3CC[C@@H]2c2cnc(C)nc2C3)cc1OC | -9 | 1.33 | – |
| CCn1ccnc1[C@H](C)NC(=O)c1ccc2oc(=O)[nH]c2c1 | 8 | -0.93 | – |
| Cc1ncc(CC(=O)N2CCN(C)[C@H](c3ccccc3)C2)c(=O)[nH]1 | -6 | 1.13 | – |
| O=C(Cc1ccn[nH]1)N1CCN(Cc2ccccc2)CC1 | 34 | -3.88 | – |
| CNc1ccnc(NCC[C@@H]2CCCN3CCCC[C@H]23)n1 | 4 | -0.7 | – |
| Cc1cnc(N2C[C@H]3CN(C)C[C@H]3C2)c(Br)c1 | -1 | 0.19 | – |
| Cc1c(C(=O)Nc2cccc3c2CCCC3)nnn1C1CCNCC1 | 1 | -0.13 | – |
| Cn1c(-c2ccccc2)c(-c2c(O)n(C)c(=O)n(C)c2=O)[nH]c1=O | -16 | 2 | – |
| CN(C)[C@H]1CCC[C@@H]1NC(=O)c1cc(F)cc(Cl)c1 | -12 | 2.3 | – |
| O=C(c1ccc(F)cc1F)N1CCN2CCC1C2 (configuration not stated) | -4 | 0.51 | – |
| Fc1c(Cl)cccc1CN1CC[C@@]2(CCCNC2)C1 | -9 | 0.99 | – |
| Cc1ccccc1S(=O)(=O)Cc1ccc(C(=O)N2CCC3(CC2)OCCO3)o1 | 4 | -0.52 | – |
| O=C1NC(c2ccsc2)N2CCCCC12 (configuration not stated) | -7 | 0.88 | – |
| CCN(C(C)=O)c1ccc([C@@](O)(C(=O)OC)C(F)(F)F)cc1 | -19 | 2.5 | – |
| O=C(NC1(Cc2cccc(F)c2)CCC1)c1ccc(S(=O)(=O)F)cc1 | 3 | -0.51 | – |
| CNc1nnc(CC(=O)N2CCN(C)C[C@@H]2CC(C)C)s1 | 2 | -0.21 | – |
| Cn1cc2ncn(Cc3cn4ccccc4n3)c(=O)c2n1 | 7 | -1.4 | – |
| CC(NC1C[C@H]2CC[C@@H](C1)N2Cc1ccccc1)c1ccccn1 (some centres not stated) | 2 | -0.2 | – |
| O=C(O)[C@@]12COc3ccccc3[C@@H]1CN(Cc1ccc(OCCO)cc1)C2 | -5 | 0.5 | – |

| SMILES | % Inhibition [%] | Z score | % Inhibition (2 µM) |
| --- | --- | --- | --- |
| O=C(NCc1ccncc1)C12CC(CN1Cc1ccccc1)C2 | -4 | 0.72 | – |
| O=C(NCC1(C(F)(F)F)CC1)c1cccc2oc(=O)[nH]c12 | -8 | 1.48 | – |
| Cc1nnc(N2CCN(CCc3cccs3)CC2)c(C#N)c1C | 5 | -0.57 | – |
| Cc1ocnc1C(=O)NCc1ccc(N2CCNCC2)c(F)c1 | -2 | 0.27 | – |
| Cc1nc([C@H]2CCOC2)cc(N(C)C2CCN(C)CC2)n1 | -5 | 0.55 | – |
| c1ccc2c(CNCCc3c[nH]c4ccccc34)cccc2c1 | – | – | 1% and -16% |
| CCOc1ccccc1NC(=O)CN1CC=C(c2cnn(C)c2)CC1 | -1 | 0.1 | – |
| Cc1c(C)[n+]([O-])c([C@H](c2ccco2)C2C(=O)N(C)C(=O)N(C)C2=O)n1Cc1ccccc1 | -11 | 1.99 | – |
| CN(C)c1cc(N(C)Cc2cnc(N)nc2)ncn1 | -13 | 1.44 | – |
| O=C(CCc1nc(C2=CCN(Cc3ccc(Cl)cc3)CC2)no1)NCc1ccc(F)cc1 | -11 | 1.27 | – |
| CCCn1c(=O)oc2cc(S(=O)(=O)N3CCC(CC(=O)Nc4cccc(C)c4C)CC3)ccc21 | -24 | 2.23 | – |
| O=C1CCC[C@@H]1CCn1c(-c2cccc(Br)c2)noc1=O | 9 | -1.32 | – |
| Cc1cc(=O)c(OCC(=O)N2CCN([C@@H](c3ccccc3)c3ccc(Cl)cc3)CC2)c[nH]1 | 33 | -9.31 | – |
| COc1ccc(CCN2C(=O)NC(=O)C3(Cc4c(Cl)cccc4N4CCN(C)CC43)C2=O)cc1OC (configuration not stated) | 1 | -0.2 | – |
| OCc1cc2n(n1)CCN(CCc1c[nH]c3ccccc13)C2 | 3 | -0.52 | – |
| COc1ccc2c(c1)[C@@]1(CCN(S(=O)(=O)c3cccc(Cl)c3)C1)C(=O)N2C | -15 | 1.96 | – |
| CN(c1nccs1)S(=O)(=O)c1c(Br)cc2[nH]c(=O)oc2c1Cl | -3 | 0.32 | – |
| Cc1ccc(C)c(OCC#CCN2CCNCC2)c1 | -12 | 1.35 | – |
| O=C1CCN(C(=O)c2nccnc2-c2nc3ccccc3s2)CC1 | 2 | -0.32 | – |
| Cc1cc(C)n(C[C@H](C)NCc2ccc(CO)cc2)n1 | -9 | 0.91 | – |
| CCCn1c(=O)oc2cc(NS(=O)(=O)c3ccc(C(C)C)cc3)ccc21 | -14 | 1.38 | – |

| SMILES | % Inhibition [%] | Z score | % Inhibition (2 µM) |
| --- | --- | --- | --- |
| CCNC(=O)NC[C@H]1C[C@@H]2CCN1C[C@@H]2c1cc(-c2ccco2)nc(C)n1 | -6 | 0.75 | – |
| CC(C)(C)n1nnnc1CN1CCC[C@H](C(=O)c2ccc(F)cc2)C1 | 3 | -0.26 | – |
| CN(C)C1(C)CCC(Nc2cccc(F)c2C(N)=O)CC1 (configuration not stated) | -3 | 0.38 | – |
| COc1ccc(CCN2C(=O)NC(=O)C3(Cc4cccc(F)c4N4CCCC43)C2=O)cc1 (configuration not stated) | 7 | -0.82 | – |
| Cc1ccc([C@@H]2CN(C(=O)c3ccncc3)[C@@H]3C4CCN(CC4)[C@@H]32)cc1 | 2 | -0.28 | – |
| CCOc1ccc(-c2nc(-c3ccc4c(c3)oc(=O)n4C(C)C)no2)cc1OCC | 11 | -1.07 | – |
| CC1(C)CC(NC2CCN(CC(F)(F)F)C2)C(C)(C)O1 (configuration not stated) | -5 | 0.69 | – |
| CCc1nccn1C[C@H](C)NCc1csc(C)n1 | -2 | 0.39 | – |
| CCCN1CCC(N[C@@H](C)CCCC(C)C)CC1 | -8 | 1.02 | – |
| Cc1cccc2c(N3CCOC4CCN(C)CC43)ncnc12 (configuration not stated) | -4 | 0.54 | – |
| CN(CC(=O)NCCc1ccc(Cl)cc1)S(=O)(=O)c1ccc2[nH]c(=O)oc2c1 | -8 | 0.84 | – |
| O=C(NCC#CCN1CCOCC1)c1ccco1 | -12 | 1.8 | – |
| Cn1cnnc1CS(=O)(=O)c1ccc(C#N)c(C(F)(F)F)c1 | -3 | 0.45 | – |
| O=C(c1cnc(-c2ccc3c(c2)OCO3)nc1Nc1cccc(F)c1)N1CCC2(CC1)OCCO2 | 5 | -0.51 | – |
| CC1(C)CC2CC(C)(CN2Cc2csnn2)C1 (configuration not stated) | -1 | 0.21 | – |
| CC(C)N1C2CCC1CN(c1ccc(C#N)cn1)CC2 (configuration not stated) | -9 | 0.89 | – |
| CCCCc1nc(CN[C@@H](C)Cn2cc(C)cn2)no1 | -3 | 0.29 | – |
| COc1ccc(N2C(=O)[C@@H]3C[C@H]2CN3Cc2ccccn2)cc1Cl | 6 | -0.82 | – |
| O=C(Nc1ccc(Cl)cc1C(=O)c1ccccc1F)c1cccc(S(=O)(=O)N2CCOCC2)c1 | -1 | 0.24 | – |
| CCCN1CC2(CCN(c3ncnc(C)c3C)CC2)C[C@H]1C(=O)O | -27 | 2.35 | – |
| Cn1nc(CN2CCC[C@H](C#N)C2)c2c(Cl)cccc21 | -12 | 1.14 | – |
